These results are taken from publication PMC4336329 (PLoS ONE, 2015).

The whole screen tested about 310,000 compounds, of which about 2,200 (0.71%) showed an effect of 50% or more. The effect is printed as a negative number. The list shows a part of the results.

For the assay, the target named is human ether-à-go-go-related gene (hERG) potassium channel (human, UniProt Q12809). The experiment in a line: primary screen, population patch clamp on CHO cells stably expressing hERG.
Sequence of human ether-à-go-go-related gene (hERG) potassium channel (Q12809 whole entry, looked up): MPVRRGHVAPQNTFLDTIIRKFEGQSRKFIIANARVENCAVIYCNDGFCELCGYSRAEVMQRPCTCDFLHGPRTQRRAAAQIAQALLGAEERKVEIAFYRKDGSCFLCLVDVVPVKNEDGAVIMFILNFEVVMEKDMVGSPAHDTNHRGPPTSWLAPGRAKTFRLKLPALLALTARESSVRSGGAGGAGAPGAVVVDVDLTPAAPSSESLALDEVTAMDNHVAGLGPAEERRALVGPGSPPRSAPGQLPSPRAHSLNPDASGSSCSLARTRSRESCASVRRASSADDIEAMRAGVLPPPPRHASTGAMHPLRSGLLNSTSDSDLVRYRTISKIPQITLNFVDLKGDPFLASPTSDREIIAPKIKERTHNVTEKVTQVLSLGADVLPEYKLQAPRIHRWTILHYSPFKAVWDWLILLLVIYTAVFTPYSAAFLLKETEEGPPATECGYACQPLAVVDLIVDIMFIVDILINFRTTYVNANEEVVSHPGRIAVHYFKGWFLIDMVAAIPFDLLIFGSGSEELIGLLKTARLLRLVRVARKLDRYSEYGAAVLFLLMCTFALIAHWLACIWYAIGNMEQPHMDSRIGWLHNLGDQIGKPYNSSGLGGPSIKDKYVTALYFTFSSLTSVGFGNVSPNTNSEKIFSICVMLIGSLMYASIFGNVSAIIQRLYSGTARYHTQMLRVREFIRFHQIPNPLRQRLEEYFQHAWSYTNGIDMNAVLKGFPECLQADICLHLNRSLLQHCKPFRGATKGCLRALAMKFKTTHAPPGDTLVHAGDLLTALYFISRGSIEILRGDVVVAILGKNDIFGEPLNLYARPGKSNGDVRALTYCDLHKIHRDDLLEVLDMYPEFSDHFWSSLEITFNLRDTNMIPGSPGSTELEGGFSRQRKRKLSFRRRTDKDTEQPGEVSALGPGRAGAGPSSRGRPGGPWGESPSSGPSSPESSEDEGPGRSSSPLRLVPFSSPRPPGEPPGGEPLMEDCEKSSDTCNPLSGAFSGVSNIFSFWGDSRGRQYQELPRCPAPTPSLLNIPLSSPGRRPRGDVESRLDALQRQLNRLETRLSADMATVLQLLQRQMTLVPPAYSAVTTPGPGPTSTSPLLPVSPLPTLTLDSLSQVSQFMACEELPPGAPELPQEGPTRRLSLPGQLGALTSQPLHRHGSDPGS
For the compound `O=C(O)CN1C(=O)CCS(=O)c2ccccc21` (stereo not drawn), the “hERG current change (%, negative = inhibition) at 1uM” value stood at 9.91%.
As for `Cc1cc(C)nc(N(C#N)Cc2cccc(Cl)c2)n1`, the “hERG current change (%, negative = inhibition) at 1uM” value worked out at 6.16%.
On to `Cc1ccc2nc(NCCNC(=O)c3ccccc3)c(C#N)cc2c1`, for which the “hERG current change (%, negative = inhibition) at 1uM” value is 10.9%.
Under `CC(C)(C)c1cc(NC(=O)COC(=O)c2ccc3c(=O)n4c(nc3c2)CCC4)n(-c2ccccc2)n1` stands 5.48%.
For `CN1CCN(S(=O)(=O)c2cccc(C(=O)N(C)C(c3ccccc3)c3ccccc3)c2)CC1`, the “hERG current change (%, negative = inhibition) at 1uM” value is given as 9.81%.
As to `CCOC(=O)CCc1c(C)nc(-n2[nH]c(C)c(CCO)c2=O)[nH]c1=O`, the “hERG current change (%, negative = inhibition) at 1uM” value came out at 18.3%.
Under `CCc1ccc(CN(C(=O)c2oc3ccccc3c2C)C2CCS(=O)(=O)C2)cc1` (stereo not drawn) stands 5.37%; under `COc1ccc([C@H]2CC(=O)C=C(c3ccc(Cl)cc3C)C2)cc1`, 10.9%.
For `O=C1CS/C(=N\c2ccccn2)N1C1CCCCC1`, the “hERG current change (%, negative = inhibition) at 1uM” value stood at 9.92%.
Under `CC1CC(C)(C)NC(=S)N1CC(=O)NCc1ccc(Cl)cc1` (stereo not drawn) stands 1.36%.
`CCOc1cc(/C=N/NC(=O)CN2CCOCC2)ccc1OCc1ccccc1`: the “hERG current change (%, negative = inhibition) at 1uM” value stood at 2.06%.
Under `CC(=O)c1ccc(S(=O)(=O)NC2CC(=O)N(c3ccc(C)c(C)c3)C2)cc1` (stereo not drawn) stands -2.68%; under `O=C(COC(=O)c1ccc(O)cc1O)c1ccc(Cl)cc1`, 11.5%.
As to `COc1cccc(CNC(=O)CCCC(=O)NC(C)CCc2ccccc2)c1` (stereo not drawn), the “hERG current change (%, negative = inhibition) at 1uM” value is listed as 11.5%.
As for `COc1cc2c(cc1OC)C(c1cc(Br)c(OC)c(OC)c1)CC(=O)N2` (stereo not drawn), the “hERG current change (%, negative = inhibition) at 1uM” value turned out to be 14.9%.
Under `CC(Sc1nc(-c2ccccc2)cc(C(F)(F)F)n1)C(=O)Nc1sc2c(c1C#N)CCC2` (stereo not drawn) stands 11.6%; under `CC1CC(C)CN(C(=O)CCNS(=O)(=O)c2ccc3c(c2)CCC(=O)N3)C1` (stereo not drawn), 13.6%.
Turning to `Cc1[nH]c(=O)[nH]c(=O)c1S(=O)(=O)Nc1ccc(F)c([N+](=O)[O-])c1`, the “hERG current change (%, negative = inhibition) at 1uM” value amounted to 10%.
In the case of `CC(C)Cc1nnc(NC(=O)CCS(=O)(=O)c2ccc(Cl)cc2)s1` it was 10.7%.
Take `CCOc1cc(-c2nccc3cc(OC)c(OC)cc23)cc(OCC)c1OCC`: the “hERG current change (%, negative = inhibition) at 1uM” value turned out to be 5.03%.
In the case of `O=C(O)C(=O)O.O=C(c1ccco1)N1CCN(Cc2ccc(F)cc2)CC1`, the “hERG current change (%, negative = inhibition) at 1uM” value worked out at 6.79%.
Turning to `CN(C)CCCNC(=O)c1ccc(-c2nc(-c3ccc(Cl)cc3)cs2)cc1`, the “hERG current change (%, negative = inhibition) at 1uM” value was determined as 7.04%.
Take `CC(=O)NCCc1ccc(O)cc1`: the “hERG current change (%, negative = inhibition) at 1uM” value was 6.46%.
On to `CCCNc1nc(OCC(F)(F)F)nc(OCC(F)(F)F)n1`, for which the “hERG current change (%, negative = inhibition) at 1uM” value was 4.89%.
`CCCCCCCCCCCCN1[C@@H](CC(C)=O)c2cc(F)cc(F)c2S1(=O)=O`: the “hERG current change (%, negative = inhibition) at 1uM” value is 11.6%.
With `CCOc1ccccc1NC(=O)C(CC(C)C)NC(=O)C1CCC(C)CC1` (stereo not drawn), the “hERG current change (%, negative = inhibition) at 1uM” value was -4.19%.
Under `CCN(CC(=O)Nc1ccc(NC(C)=O)cc1)Cc1c(O)ccc2cc(Br)ccc12` stands 13.5%.
In the case of `CCCCNC(=O)c1cc2ccccc2s1` it was 14%; in that of `COCCCNC(=O)c1ccc(S(=O)(=O)c2ccc(C)cc2)c(NC(C)=O)c1`, 18.7%.
Under `COc1cc(CNCc2ccccc2)c(Br)cc1OC1CCCC1.Cl` stands 16.9%; under `CCN(CC)C(=O)C1CC(=O)OC12CCCCC2` (stereo not drawn), 8.44%; under `CCCCc1c(O)nc(SCC(=O)N2CCOCC2)n(-c2ccc(OC)cc2)c1=O`, 15.8%.
For the compound `CCOc1ccc(CCNC(=O)c2nn(C)c3c2CS(=O)(=O)c2ccccc2-3)cc1OCC`, the “hERG current change (%, negative = inhibition) at 1uM” value worked out at 10.3%.
As to `COc1cccc(CNC(=O)C2CCN(c3nnc(N4CCCC4=O)s3)CC2)c1`, the “hERG current change (%, negative = inhibition) at 1uM” value amounted to 18.2%.
Consider `O=C(N/N=C/C=C\c1cccc([N+](=O)[O-])c1)c1ccccn1`, for which the “hERG current change (%, negative = inhibition) at 1uM” value stood at 5.57%.
Under `O=C(CC(=O)N/N=C/c1ccc(O)cc1)N/N=C/c1ccc(O)cc1` stands 10.1%; under `COc1ccccc1C(=O)N(Cc1cccs1)C1CCS(=O)(=O)C1` (stereo not drawn), 4.49%; under `COc1ccc(C(=O)Nc2ccc3nc(N4CCCCC4)cc(C)c3c2)cc1OC`, -20.6%.
With `COc1cc(CCN2C(=O)N[C@@H](c3cccc(C(F)(F)F)c3)C(C(C)=O)=C2C)cc(OC)c1OC`, the “hERG current change (%, negative = inhibition) at 1uM” value is -13%.
With `COCc1cc(N2CCCCC2)nc(-c2ccccc2)n1`, the “hERG current change (%, negative = inhibition) at 1uM” value amounted to 7.78%.
With `O=C(CCS(=O)(=O)Cc1ccccc1)N1CCN(Cc2ccccc2)CC1`, the “hERG current change (%, negative = inhibition) at 1uM” value is -0.639%.
`O=C1/C(=C\c2ccc3c(c2)OCO3)N2CCC1CC2`: the “hERG current change (%, negative = inhibition) at 1uM” value amounted to 2.9%.
Turning to `Cc1ccc(-c2csc(NC(=O)c3c(C)noc3C)n2)cc1C`, the “hERG current change (%, negative = inhibition) at 1uM” value is given as 7.4%.
`CCCS(=O)(=O)N1CCC(C(=O)NCCC(C)C)CC1`: the “hERG current change (%, negative = inhibition) at 1uM” value was 7.18%.
Under `CC(C)C[C@@H](CSc1ccccc1)N1CCN(C)CCC1=O` stands 9.48%.
For `COCC(C)N1CCC(Oc2cccc(C(=O)NCCc3ccccc3)c2)CC1` (stereo not drawn), the “hERG current change (%, negative = inhibition) at 1uM” value is on record as -34.1%.
With `CCCCNC(=S)NNC(=O)c1ccncc1`, the “hERG current change (%, negative = inhibition) at 1uM” value turned out to be 11.5%.
As to `CCc1cc(C=C(Cl)Cl)oc(=O)c1C`, the “hERG current change (%, negative = inhibition) at 1uM” value is -1.86%.
On to `COc1ccccc1OC(=O)c1ccc(S(=O)(=O)N(C)C)cc1`, for which the “hERG current change (%, negative = inhibition) at 1uM” value is given as 12.4%.
With `NC(=S)N/N=C/c1coc2cc(Cl)ccc2c1=O`, the “hERG current change (%, negative = inhibition) at 1uM” value was 10.8%.
Under `CCN(CC(=O)Nc1ccccc1C(F)(F)F)C(=O)Cn1c(=O)cnc2ccccc21` stands 10.1%; under `O=C(NCCS(=O)(=O)NCc1ccc(F)cc1)c1ccc2c(c1)OCO2`, -4.13%; under `CCC(=O)N1CCc2cc(Br)cc(S(=O)(=O)NCCN3CCCCC3C)c21` (stereo not drawn), 10.2%.
Consider `O=C(Cn1nc(-c2cccc(Cl)c2)ccc1=O)Nc1ccccc1Br`, for which the “hERG current change (%, negative = inhibition) at 1uM” value is 5.64%.
`Cc1ccc(C2CC(c3ccc(Cl)cc3)=NNC2=O)cc1` (stereo not drawn): the “hERG current change (%, negative = inhibition) at 1uM” value was -7.36%.
For the compound `CCCCN(CC)S(=O)(=O)N1CCC(C(=O)NCCCN2CCOCC2)CC1`, the “hERG current change (%, negative = inhibition) at 1uM” value is 13.1%.
Take `Cc1ccc(-c2ccc(SCC(=O)Nc3cc(C)on3)nn2)cc1`: the “hERG current change (%, negative = inhibition) at 1uM” value stood at 3.03%.
